In PubChem BioAssay AID1963576 (National Center for Advancing Translational Sciences (NCATS), 2024):
Screen size: about 46,000 compounds; about 60 (0.1%) were called active. Another 3% or so got no clear call; they are omitted. The call rests on the fitted dose curve; in most records, active means well fitted inhibition curve with a large enough effect; inconclusive means small, poorly fitted or top-dose-only effect; inactive means no such curve, though single readings can be large or run the other way. The list shows a part of the results.

Assay: Primary qHTS assay for Inhibitors of ovarian cancer metastasis using an organotypic tumor microenvironment (TME) model. Further: nearly all actives have a fitted effect of over 65% in size.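 On activity change, negative = inhibition: plate controls were DMSO wells for no effect and tomatine positive control wells for full effect.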
Settings: SKOV3ip1-GFP adhesion/invasion on 3D omental model, fluorescence; series mostly up to 45.8 µM; activity change, negative = inhibition: at the top concentration
In short: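 qHTS, 4-pt dose (0.36-46 umol/L); SKOV3ip1-GFP, 1,200 cells/well, no FBS; primary omental fibroblast/mesothelial co-culture 48 h pre-grown; 2 h RT + 16 h 37 C; PBS wash, 4% PFA; GFP count 488/509 nm.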

outcome, inactive:
Cc1cc2nc(-c3ccc(NC(=O)c4ccccc4F)cc3)oc2cc1C
Nc1ncc(S(=O)(=O)Nc2ccc(F)cc2F)cn1
Cc1cccc(C(=O)Nc2ccc3nc(SCCOc4ccccc4)sc3c2)c1
COC(=O)c1ccccc1NC(=O)Cn1c(=O)cc(C)c2c(C)nn(C)c21
COc1ccc(N2CCN(C(c3ccccc3F)c3sc4nc(-c5ccco5)nn4c3O)CC2)cc1 (stereo not given)
CCOC(=O)c1c(NC(=O)COc2cccc(C)c2C)sc(C(C)=O)c1C
COc1ccccc1C(=O)Nc1c(C(=O)Nc2ccccc2F)oc2ccccc12
Cc1ccc2cccc(NC(=O)C(C)Oc3ccc(Cl)cc3Cl)c2n1 (stereo not given)
COc1ccc(CNC(=O)Nc2cn(CC(C)C)c(=O)c3ccccc23)cc1
Cc1cc(Cl)ccc1OCC(=O)N1CCC(c2nc3ccccc3s2)CC1
Cc1ccc(-c2nc(C(=O)NCc3ccccc3Cl)c3n2CCCCC3)cc1
Cc1ccc(NC(=O)N2CCC(CN3CCCC3)CC2)c(C)c1
CCc1nn(CCCC(=O)N2CCN(c3cccc(OC)c3)CC2)c(=O)c2cc3occc3n12
COC(=O)c1cc(C)nc2c1c(=O)nc(SCc1ccccc1C)n2C1CC1
Cc1ccc(S(=O)(=O)Nc2cc3c(cc2N2CCOCC2)n(C)c(=O)n3C)cc1
CCOC(=O)c1c(NC(=O)CSc2cn(CCNC(=O)c3c(F)cccc3F)c3ccccc23)sc2c1CCC2
CC(=O)Nc1c(C)nn(-c2ccccc2)c1N1CCC(C(=O)NCc2ccccc2Cl)CC1
CCOc1ccc(-n2c(SCC(N)=O)nc3c(oc4ccccc43)c2=O)cc1
COc1ccc(C2C(C(N)=O)=C(C)Nc3nc(SCc4ccccc4Cl)nn32)cc1OC (stereo not given)
CCOC(=O)c1ccccc1NC(=O)CSc1nc2ccncc2[nH]1
CCOC(=O)CNc1nc(Oc2ccc(=O)n(C)n2)nc(N(CC)CC)n1
COc1ccc(OC)c(NC(=O)c2cc(-c3ccc(Cl)s3)nc3ccccc23)c1
Cc1cc(=O)[nH]c2nnc(SCC(=O)Nc3ccc(OC(F)(F)F)cc3)n12
O=C(COc1ccccc1)NCc1ccc2c(c1)CCN2C(=O)c1ccc(Cl)cc1
COc1ccccc1CNC(=O)CCc1c(C)nn(-c2ccc(N3CCOCC3)nn2)c1C
NCc1nc2cccnc2n1Cc1ccccc1Cl
Cc1ccc(CNC(=O)c2oc3c(c2C)-c2nn(Cc4ccc(Cl)cc4)cc2CC3)cc1
CCOc1ccc(NC(=O)Cn2c3ncccc3c(=O)n2-c2ccc(CC)cc2)cc1

Activity change, negative = inhibition, inactive:
COc1ccccc1-c1noc(-c2ccc(NC3CCCC3)c([N+](=O)[O-])c2)n1 56.6%
COc1ccccc1-c1nc(SCC(=O)NCc2ccccc2)c2c(=O)n(C)c(=O)n(C)c2n1 0.328%
CCOc1ccc(CNC(=O)CS(=O)(=O)c2cccc3nsnc23)cc1 -8.6%
Nc1c(C(=O)Nc2cccc(F)c2)c2ccccn2c1C(=O)c1ccccc1 0.159%
CCc1cnc2c(c1SCC(=O)NCc1ccc(F)cc1)c(=O)n(C)c(=O)n2C 4.25%
COc1ccc(C2C=C(c3ccccc3)Nc3nc(NC(=O)/C=C/c4ccccc4Cl)nn32)cc1 (stereo not given) -30.1%
COc1ccc(CCNc2nc(SCc3ccc(Cl)cc3)nc3ccccc23)cc1OC -1.8%
Cc1ccc(C)c(Cn2c(C(=O)O)c(CNCc3cccs3)c3ccccc32)c1 -6.16%
COc1ccc(NC(=O)CN2C(=O)COc3ccc(S(=O)(=O)N4CCCCC4)cc32)cc1OC 15.1%
CCCCC(=O)N1CCc2cc(OC)c(OC)cc2C1COc1ccc(OC)cc1 (stereo not given) -0.239%
Cc1cc(C)c2c(c1)c(C)cc1nnc(SCC(=O)c3ccc(F)cc3)n12 1.62%
COc1ccc(Cl)cc1NC(=O)Cn1c(=O)c(-c2ccccc2NC(C)=O)nc2ccccc21 -5.77%
Cc1ccc(NC(=O)CC2Sc3ccc(C(F)(F)F)cc3NC2=O)cc1 (stereo not given) 1.77%
COc1cccc(CNS(=O)(=O)c2ccc3c(c2)C(C(C)C)C(=O)N3)c1 (stereo not given) 9.53%
CCOc1ccc(C(c2c(O)cc(C)n(Cc3ccco3)c2=O)N2CCCCC2)cc1 (stereo not given) -2.48%
Cc1c(C(=O)O)oc2c1-c1nn(Cc3ccc(Cl)cc3)cc1CC2 3.31%
CN(C)CCNC(=O)C(=O)NCC(c1ccc2c(c1)OCO2)N1CCOCC1 (stereo not given) -1.26%
Cc1cc(-c2ccccc2)n2nc(-c3ccccc3)cc2n1 -3.45%
Cc1cc(C)c(NC(=O)CSc2nncn3c2cc2oc(C)cc23)c(C)c1 12.2%
Cc1ccn2c(Nc3ccc(C(C)C)cc3)c(-c3cccnc3)nc2c1 -0.0792%
Cc1ccc(OCCSc2nc(C)c(Cc3ccccc3)c(=O)[nH]2)cc1 -0.465%
C[C@]12CCC(=O)C=C1[C@@H]1CC1[C@H]1[C@H]3[C@@H]4C[C@H]4[C@@]4(CCC(=O)O4)[C@@]3(C)CC[C@H]12 (stereo not given in full) -7.44%
CCc1cccc(NC(=O)c2ccc(NC(=O)N3CCSc4ncccc43)cc2)c1 6.55%
CC(=O)c1cccc(NS(=O)(=O)c2cc3c(cc2C)N(C(C)=O)CCO3)c1 -15.2%
Cc1c(-c2nc(-c3ccc4c(c3)OCO4)no2)nnn1-c1ccc(C(C)C)cc1 0.134%
Cc1ccc(C(=O)NCC(c2ccc3c(c2)OCO3)N2CCOCC2)cc1 (stereo not given) -2.2%
Cc1cccc(NC(=O)C(Cc2ccccc2)NS(=O)(=O)c2ccc3c(c2)c(=O)n(C)c(=O)n3C)c1 (stereo not given) 5.53%
COC(=O)C1CCN(S(=O)(=O)c2ccc(N3CCCCS3(=O)=O)cc2)CC1 6.22%
Cc1ccc2nc(-c3cc(NC(=O)COc4ccc(C)c(C)c4)ccc3Cl)oc2c1 -20.8%
CCC(=O)Oc1ccc(C2Nc3ccccc3-c3nnc(SC)nc3O2)cc1 (stereo not given) -14%
Cc1ccc(NC(=O)N2CCN(c3cc(-c4noc(C)n4)ccc3C)CC2)c(F)c1 -12.8%
CCCn1c(=O)c2sccc2n2c(CCCC(=O)NCc3ccccc3)nnc12 -1.83%
O=C(COc1ccccc1Cl)Nc1ccc2nc(SCC(=O)N3CCCC3)sc2c1 -2.63%
CCOC(=O)c1noc2ncnc(Nc3cccc(OC)c3)c12 95.1%
CCOC(=O)COc1ccc(F)cc1C(=O)c1ccn2nc(-c3ccc(Cl)cc3)cc2n1 -25.9%
COc1ccc(CCN2C(=O)c3[nH]nc(-c4ccccc4O)c3C2c2ccc(OC)c(OC)c2)cc1 (stereo not given) -16.5%
O=C(CCn1nc(-c2ccc(Cl)cc2)ccc1=O)NCCc1ccccc1 -20%
Cc1ccc(S(=O)Cc2nc(-c3ccc(C(=O)NCc4cccc(C)c4)cc3)oc2C)cc1 (stereo not given) -4.91%
Clc1cccc(Cl)c1NC1=NCCN1 -21.3%
CCOC(=O)C1=C(CS(=O)(=O)c2ccc(OC)c(Cl)c2)NC(=O)NC1c1cccc(OC)c1 (stereo not given) 18.4%
COc1ccc(-c2cc(-c3ccccc3)nc(SCC(=O)Nc3ccccc3F)c2C#N)cc1 4.95%
COc1cccc(NC(=O)CSc2nc(-c3ccccc3Cl)nc3c2Cc2c(CO)cnc(C)c2O3)c1 -20.1%
COc1ccc(C(=O)c2cn(Cc3ccccc3F)c3cc4c(cc3c2=O)OCO4)cc1 -0.887%
COc1ccc(CNC(=O)Cn2nnc(-c3ccc(C(F)(F)F)cc3)n2)cc1 -12%
CCOC(=O)c1ccc(N2C(=O)c3n[nH]c(C)c3C2c2cccc(Br)c2)cc1 (stereo not given) -4.8%
COc1ccccc1C(=O)Nc1ccc2oc(-c3cccc(Cl)c3Cl)nc2c1 -3.68%
COc1ccc(-n2c3c(cc(-c4nc(-c5ccc(C)cc5)cs4)c2=O)C(=O)CC(C)(C)C3)cc1 -0.123%
CC(C)C(=O)NCC(c1ccc2c(c1)OCO2)N1CCN(c2ccccc2F)CC1 (stereo not given) 5.77%
CCOc1ccc(C(=O)NCc2nc3cccnc3n2Cc2ccc(F)cc2)cc1OCC -0.939%
CC1CCCN(C(=O)c2cc3c(=O)n(C)c4ccccc4c3s2)C1 (stereo not given) -23.2%
Cc1sc2c(c1C)c(=O)n(-c1ccc(Cl)cc1)c(=O)n2Cc1cc(=O)n2ccccc2n1 -0.925%
O=C(NCc1ccco1)c1ccc(Cn2c(SCc3ccc(F)cc3)nc3cccnc32)cc1 -3.2%
Cc1ccc(CNC(=O)c2nc(SCc3ccccc3F)ncc2Cl)cc1 9.34%
Cc1cc(C)cc(NC(=O)C(=O)NCC(c2ccc3c(c2)OCO3)N2CCN(C)CC2)c1 (stereo not given) -14.4%
COc1ccc(NC(=O)Cn2c(=O)c(-c3cc(C)ccc3NC(C)=O)nc3ccccc32)c(OC)c1 30.8%
COc1cccc2c1ncc1c(-c3ccc(C)cc3)nn(-c3cccc([N+](=O)[O-])c3)c12 -6.66%
Cc1cccc(-c2nnc(SCc3cc(=O)c4cccc(Cl)c4[nH]3)n2C)c1 8.08%
CCOc1ccc(-n2c(SCC(=O)N3CCc4ccccc43)nc3c([nH]c4ccccc43)c2=O)cc1 -9.92%
Cc1cccc(-c2nc(SCC(=O)N3CCc4ccccc43)c3c(=O)n(C)c(=O)n(C)c3n2)c1 -3.53%
COc1ccc(N2CCN(Cc3nc4c(c(=O)[nH]c(=O)n4C)n3Cc3ccc(Cl)cc3)CC2)cc1 -0.387%
CCC(=O)Nc1cc(-c2cccc(C)c2)nn1-c1ccccc1 0.319%
COc1ccc(NC(=O)N(CCC(C)C)C(C)c2cccs2)c(OC)c1 (stereo not given) -9.73%
COCCNc1ncnc2c1c(-c1ccccc1)cn2-c1ccc(C)c(Cl)c1 -4.15%
O=C(NCc1ccco1)c1ccc2c(c1)N(Cc1ccccc1)C(=O)c1ccccc1S2(=O)=O 1.22%
COc1ccc(NC(=O)CSc2nc3c([nH]c4ccccc43)c(=O)n2-c2ccccc2)c(OC)c1 -23.3%
Cc1cc(S(=O)(=O)C(CNC(=O)c2ccc(OC(C)C)cc2)c2cccs2)ccc1F (stereo not given) -9.22%
CCN(CC)S(=O)(=O)c1ccc(NC(=O)NCc2noc3ccc(C)cc23)cc1 -19.4%
